Assay results from ChEMBL document CHEMBL4888484, “Replenishing the malaria drug discovery pipeline: Screening and hit evaluation of the MMV Hit Generation Library 1 (HGL1) against asexual blood stage Plasmodium falciparum ,using a nano luciferase reporter read-out” (2022).
About 540 (0.36%) of roughly 150,000 compounds showed an effect of 50% or more. The list shows a part of the results.

system: Plasmodium falciparum; experiment: Primary screen in NF54 nanoGlo assay, in single point, at 2uM, 72h; a lower Z score goes with more inhibition; assay type: functional, Erythrocyte; settings: timepoint 72 hour

Compound | % Inhibition [%] | Z score
COCCOC1CN(S(=O)(=O)N2CC(C)OC(C)C2)C1 (stereo unspecified) | 1 | -0.15
O=c1c2ccccc2ncn1CCN1CCCS1(=O)=O | -10 | 1.97
CN(CC(C)(C)C)S(=O)(=O)CC[C@H]1CCCO1 | -7 | 0.97
Cc1ccsc1CN(Cc1ccccc1)C(=O)CN(C[C@H]1CCCO1)C(=O)c1cccc(F)c1 | 1 | -0.12
O=C1NCCN1C(=O)N1C2CCC1CC(=C1CC1)C2 | 20 | -2.65
FC1(F)CC[C@H](Cc2nc(-c3cn[nH]c3)no2)C1 | -11 | 1.17
COc1ccc(-c2csc(C)n2)cc1S(=O)(=O)Nc1ccc(F)cc1 | -10 | 1.32
COCC(=O)Nc1cc(C(=O)N[C@@H](C)Cn2ccc3ccccc32)c2c(c1)nc(C1CCC1)n2C | -11 | 1.6
COc1ccc(CNC(=O)CCc2nnc3c4cc(-c5ccc(Cl)cc5)nn4ccn23)c(OC)c1 | -2 | 0.23
O=C(N[C@@H]1CCC[C@@H]1n1ccnc1)[C@H](O)c1ccccc1Cl | 27 | -3.48
COc1ccc(-c2nc3ccc(C(=O)NCCN4CCCCC4)cc3nc2-c2ccc(OC)cc2)cc1 | 5 | -0.71
O=C(O)c1sc(NC[C@H]2CCCO2)nc1C(F)(F)F | 8 | -1.05
C#CCN(C)CC(=O)NC1CCCCC1C (stereo unspecified) | 3 | -0.36
Cc1csc(C(=O)NCc2cc(C)ncn2)c1 | -3 | 0.64
C[C@H]1Cc2cc(Cn3ccnc3-c3ccc(C#CCO)s3)ccc2O1 | -10 | 1.28
COc1ccc([C@H]2CN(C(=O)c3cc(-c4ccccc4)on3)C[C@@H]2N)cc1 | -7 | 0.9
O=C1CCC(CCC(=O)N[C@H]2CC[C@@H](C(=O)NC3CCCCC3)C2)=NN1 | -1 | 0.08
CCCCn1nc(COC)nc1-c1cc2cc(OC)ccc2[nH]1 | -19 | 1.95
COc1cccc(CC(=O)Nc2ccc(N3CCOCC3)nc2)c1 | -9 | 1.11
Cc1ccc(C(=O)Nc2cccc(-c3noc(C4CCCC4)n3)c2)cc1NC(=O)c1ccco1 | -12 | 2.06
O=C(NC1CCCCC1)N1CCCN(c2nc3cc(Br)ccc3n3cccc23)CC1 | 8 | -1.4
COc1ccc(-n2ccnc2CN(C)CC2(CO)CCOCC2)cc1 | -21 | 1.82
CCc1nc(NS(=O)(=O)c2cc(Cl)sc2Cl)no1 | 35 | -5.1
